Data as given in the supplement of paper PMC12217912.
This is one part of the list. The full chains were built here from the parent and the listed change. Values near 0.05 are background.

B1: TEV protease; numbered along this chain (parent)
chain: MGESLFKGPRDYNPISSSICHLTNESDGHTTSLYGIGFGPFIITNKHLFRRNNGTLVVQSLHGVFKVKDTTTLQQHLVDGRDMIIIRMPKDFPPFPQKLKFREPQREERICLVTTNFQTKSMSSMVSDTSCTFPSGDGIFWKHWIQTKDGQCGSPLVSTRDGFIVGIHSASNFTNTNNYFTSVPKNFMELLTNQEAQQWVSGWRLNADSVLWGGHKVFMVKPEEPFQPVKEATQL

Variants of: B1
Assay: raw area under fraction-flipped curve 0-4 h after induction (AUC4h, not background-subtracted), DNA-recorder readout of cleavage of the substrate (dimensionless); higher = more cleavage of the substrate by the protease variant
Settings: temperature: 34 °C; time window: 0-4 h after rhamnose induction
Procedure: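 In vivo DNA recorder in E. coli TOP10(DE3) ΔrhaA at 34 °C. Each TEVp single-site mutant (parent TEVp 0) is paired with a single-site variant of the 7-mer TEVs (canonical ENLYFQ|S). The substrate sits between flexible linkers in a Bxb1-sfGFP-TEVs-SsrA fusion, so cleavage stabilises Bxb1 and speeds flipping of a recombination array, read by NGS. The value is the raw area under the fraction-flipped curve over 0-4 h after rhamnose induction (AUC4h), with ≥20 reads per time point. It is not background-subtracted; inactive controls average about 0.047.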
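Also: Bxb1 expression induced with 0.2% (w/v) L-rhamnose at OD600 near 0.5, cultures sampled hourly, flipped fraction per protease–substrate barcode pair counted by paired-end Illumina sequencing.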

## L77I
  area with substrate ENLYCQS: 0.059
  area with substrate ENLYDQS: 0.0475
  area with substrate ENLYEQS: 0.0531
  area with substrate ENLYGQS: 0.0215
  area with substrate ENLYHQS: 0.0636
  area with substrate ENLYKQS: 0.0627
  area with substrate ENLYLQS: 0.067
  area with substrate ENLYMQS: 0.0584
  area with substrate ENLYNQS: 0.0896
  area with substrate ENLYPQS: 0.0615
  area with substrate ENLYQQS: 0.0562
  area with substrate ENLYSQS: 0.066
  area with substrate ENLYWQS: 0.0392

## R81C
  area with substrate ENLYCQS: 0.0894
  area with substrate ENLYDQS: 0.0597
  area with substrate ENLYEQS: 0.073
  area with substrate ENLYGQS: 0.0716
  area with substrate ENLYHQS: 0.0642
  area with substrate ENLYIQS: 0.0934
  area with substrate ENLYKQS: 0.0665
  area with substrate ENLYMQS: 0.0716
  area with substrate ENLYNQS: 0.0606
  area with substrate ENLYPQS: 0.0692
  area with substrate ENLYQQS: 0.0581
  area with substrate ENLYRQS: 0.0737
  area with substrate ENLYSQS: 0.0628
  area with substrate ENLYWQS: 0.039
  area with substrate ENLYYQS: 0.0526

## I86Q
  area with substrate ENLYCQS: 0.0495
  area with substrate ENLYDQS: 0.0517
  area with substrate ENLYEQS: 0.0561
  area with substrate ENLYGQS: 0.0351
  area with substrate ENLYHQS: 0.0435
  area with substrate ENLYIQS: 0.0298
  area with substrate ENLYKQS: 0.0549
  area with substrate ENLYLQS: 0.0392
  area with substrate ENLYNQS: 0.0411
  area with substrate ENLYQQS: 0.0499
  area with substrate ENLYSQS: 0.0297
  area with substrate ENLYWQS: 0.0452
  area with substrate ENLYYQS: 0.0496

## P89N
  area with substrate ENLYCQS: 0.0694
  area with substrate ENLYDQS: 0.0474
  area with substrate ENLYEQS: 0.0645
  area with substrate ENLYGQS: 0.054
  area with substrate ENLYHQS: 0.0662
  area with substrate ENLYIQS: 0.0904
  area with substrate ENLYKQS: 0.0491
  area with substrate ENLYMQS: 0.0792
  area with substrate ENLYNQS: 0.0636
  area with substrate ENLYPQS: 0.063
  area with substrate ENLYQQS: 0.0497
  area with substrate ENLYTQS: 0.0738
  area with substrate ENLYWQS: 0.0708
  area with substrate ENLYYQS: 0.0602

## P89S
  area with substrate ENLYCQS: 0.0865
  area with substrate ENLYEQS: 0.0577
  area with substrate ENLYGQS: 0.0527
  area with substrate ENLYHQS: 0.0618
  area with substrate ENLYIQS: 0.103
  area with substrate ENLYKQS: 0.0893
  area with substrate ENLYMQS: 0.0738
  area with substrate ENLYNQS: 0.0581
  area with substrate ENLYPQS: 0.0732
  area with substrate ENLYRQS: 0.0658
  area with substrate ENLYSQS: 0.0664
  area with substrate ENLYTQS: 0.0691
  area with substrate ENLYVQS: 0.0983
  area with substrate ENLYWQS: 0.0715
  area with substrate ENLYYQS: 0.0614

## K90W
  area with substrate ENLYCQS: 0.0885
  area with substrate ENLYDQS: 0.0685
  area with substrate ENLYEQS: 0.0997
  area with substrate ENLYHQS: 0.0701
  area with substrate ENLYIQS: 0.108
  area with substrate ENLYMQS: 0.0782
  area with substrate ENLYNQS: 0.0808
  area with substrate ENLYPQS: 0.0618
  area with substrate ENLYSQS: 0.0767
  area with substrate ENLYTQS: 0.0804
  area with substrate ENLYVQS: 0.13
  area with substrate ENLYWQS: 0.0816

## P93M
  area with substrate ENLYCQS: 0.09
  area with substrate ENLYDQS: 0.0597
  area with substrate ENLYEQS: 0.0569
  area with substrate ENLYGQS: 0.139
  area with substrate ENLYHQS: 0.0659
  area with substrate ENLYIQS: 0.143
  area with substrate ENLYNQS: 0.065
  area with substrate ENLYPQS: 0.0729
  area with substrate ENLYQQS: 0.0539
  area with substrate ENLYRQS: 0.0526
  area with substrate ENLYSQS: 0.0571
  area with substrate ENLYVQS: 0.115
  area with substrate ENLYWQS: 0.0673
  area with substrate ENLYYQS: 0.0599

## L99D
  area with substrate ENLYCQS: 0.058
  area with substrate ENLYDQS: 0.0559
  area with substrate ENLYGQS: 0.0451
  area with substrate ENLYHQS: 0.052
  area with substrate ENLYIQS: 0.0752
  area with substrate ENLYMQS: 0.0668
  area with substrate ENLYNQS: 0.0612
  area with substrate ENLYQQS: 0.0533
  area with substrate ENLYVQS: 0.0826
  area with substrate ENLYWQS: 0.0863

## Q105R
  area with substrate ENLYCQS: 0.0784
  area with substrate ENLYDQS: 0.0678
  area with substrate ENLYEQS: 0.0671
  area with substrate ENLYGQS: 0.0686
  area with substrate ENLYHQS: 0.0691
  area with substrate ENLYIQS: 0.123
  area with substrate ENLYMQS: 0.0804
  area with substrate ENLYNQS: 0.0612
  area with substrate ENLYPQS: 0.0687
  area with substrate ENLYQQS: 0.0636
  area with substrate ENLYRQS: 0.0557
  area with substrate ENLYSQS: 0.0663
  area with substrate ENLYVQS: 0.112
  area with substrate ENLYWQS: 0.0749
  area with substrate ENLYYQS: 0.0748

## I110D
  area with substrate ENLYCQS: 0.0564
  area with substrate ENLYDQS: 0.0588
  area with substrate ENLYEQS: 0.0625
  area with substrate ENLYGQS: 0.0422
  area with substrate ENLYHQS: 0.0523
  area with substrate ENLYIQS: 0.0717
  area with substrate ENLYKQS: 0.0198
  area with substrate ENLYMQS: 0.059
  area with substrate ENLYNQS: 0.063
  area with substrate ENLYPQS: 0.0573
  area with substrate ENLYQQS: 0.0633
  area with substrate ENLYRQS: 0.0518
  area with substrate ENLYWQS: 0.0588
  area with substrate ENLYYQS: 0.0418

## C111M
  area with substrate ENLYCQS: 0.0859
  area with substrate ENLYDQS: 0.0521
  area with substrate ENLYEQS: 0.066
  area with substrate ENLYHQS: 0.0712
  area with substrate ENLYIQS: 0.0962
  area with substrate ENLYKQS: 0.0617
  area with substrate ENLYLQS: 0.066
  area with substrate ENLYMQS: 0.0711
  area with substrate ENLYNQS: 0.0526
  area with substrate ENLYPQS: 0.073
  area with substrate ENLYQQS: 0.0641
  area with substrate ENLYRQS: 0.0712
  area with substrate ENLYSQS: 0.0869
  area with substrate ENLYTQS: 0.0783
  area with substrate ENLYVQS: 0.1
  area with substrate ENLYWQS: 0.08
  area with substrate ENLYYQS: 0.0539

## T114Y
  area with substrate ENLYCQS: 0.0911
  area with substrate ENLYDQS: 0.0689
  area with substrate ENLYGQS: 0.0941
  area with substrate ENLYHQS: 0.0807
  area with substrate ENLYIQS: 0.116
  area with substrate ENLYKQS: 0.0553
  area with substrate ENLYLQS: 0.0917
  area with substrate ENLYMQS: 0.083
  area with substrate ENLYNQS: 0.074
  area with substrate ENLYRQS: 0.0478
  area with substrate ENLYTQS: 0.0773

## S121M
  area with substrate ENLYCQS: 0.0713
  area with substrate ENLYEQS: 0.0613
  area with substrate ENLYGQS: 0.0599
  area with substrate ENLYHQS: 0.0634
  area with substrate ENLYIQS: 0.118
  area with substrate ENLYKQS: 0.0611
  area with substrate ENLYMQS: 0.0921
  area with substrate ENLYNQS: 0.0646
  area with substrate ENLYPQS: 0.0711
  area with substrate ENLYQQS: 0.0556
  area with substrate ENLYRQS: 0.0571
  area with substrate ENLYSQS: 0.0609
  area with substrate ENLYTQS: 0.0716
  area with substrate ENLYWQS: 0.0766
